# Source: the supplement of paper PMC11166567
# The other results are listed elsewhere or left out.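 How the source made its calls: active = permutation test q below 0.05 after Benjamini-Hochberg correction; inactive = q of 0.05 or more.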
# Legend:
# A549 = assay: mean average precision of replicate retrieval against DMSO controls (Cell Painting phenotypic activity) (fraction (0-1)); higher = stronger, more reproducible morphological phenotype distinct from DMSO; extreme values may be limits of the assay; settings: 5 µM
# U2OS = assay: as above; settings: 5 µM
# 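Further: cosine similarity of well-level aggregated Cell Painting profiles ranks each compound's replicate wells against DMSO wells, four replicate plates, significance from 100,000 rank shuffles.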
Structure (SMILES),mean average precision (A549; 24 h),mean average precision (A549; 48 h),mean average precision (U2OS; 24 h),mean average precision (U2OS; 48 h)
COc1cc(N2CCN(C)CC2)ccc1Nc1nccc(-c2cn(C)c3cnccc23)n1,active: 1,active: 1,active: 1,active: 1
CCCCCCCN(CC)CCCC(O)c1ccc(NS(C)(=O)=O)cc1 (stereo not drawn),active: 0.628,active: 1,inactive: 0.142,active: 0.457
Cc1ccnc2c1NC(=O)c1cccnc1N2C1CC1,active: 0.572,active: 0.497,active: 0.487,active: 0.534
O=C1CCc2cc(OCCCCc3nnnn3C3CCCCC3)ccc2N1,active: 0.728,active: 0.594,active: 0.808,active: 0.889
O=C(Nc1cnn2ccc(N3CCC[C@@H]3c3cc(F)ccc3F)nc12)N1CC[C@H](O)C1,inactive: 0.288,active: 0.809,active: 0.65,active: 0.334
Cc1nn(C)c2nc(NNC(=O)Nc3cc(Cl)nc(Cl)c3)cc(C(C)C)c12,active: 0.689,active: 1,active: 1,active: 0.555
C[C@H](N)C(=O)NCC(=O)N[C@H]1CSSC[C@@H](C(=O)O)NC(=O)[C@H](CO)NC(=O)[C@H]([C@@H](C)O)NC(=O)[C@H](Cc2ccccc2)NC(=O)[C@H]([C@@H](C)O)NC(=O)[C@H](CCCCN)NC(=O)[C@H](Cc2c[nH]c3ccccc23)NC(=O)[C@H](Cc2ccccc2)NC(=O)[C@H](Cc2ccccc2)NC(=O)[C@H](CC(N)=O)NC(=O)[C@H](CCCCN)NC1=O,active: 0.436,active: 0.722,active: 0.624,active: 0.356
Cc1nc2c([nH]1)CCN(C(=O)c1ccc(NC(=O)c3ccccc3-c3ccccc3)cc1)c1ccccc1-2,active: 1,active: 1,active: 1,active: 0.869
CCOc1ccccc1N=Nc1c(C)[nH]n(-c2nc(-c3ccccc3)cs2)c1=O,active: 0.815,active: 0.75,inactive: 0.218,active: 0.466
C[C@@H]1CC2C3CCC4=CC(=O)C=C[C@]4(C)[C@@]3(F)[C@@H](O)C[C@]2(C)[C@@]1(O)C(=O)CO (stereo partly drawn),active: 0.697,active: 1,active: 0.667,inactive: 0.28
COCCN1CCN(Cc2ccc(-c3n[nH]c4c3C(=O)c3c(NC(=O)NN5CCOCC5)cccc3-4)cc2)CC1,active: 1,active: 1,active: 1,active: 1
Cc1cnc(-c2ccccc2C(C)C)nc1NCc1ccc(-n2ccnn2)cc1,active: 0.666,active: 1,active: 0.807,active: 0.569
CNC(=O)c1cc(Oc2ccc(NC(=O)Nc3ccc(Cl)c(C(F)(F)F)c3)c(F)c2)ccn1,active: 0.951,active: 1,active: 1,active: 1
Nc1ccn([C@H]2C[C@H](O)[C@@H](CO)O2)c(=O)n1,inactive: 0.246,active: 0.592,inactive: 0.12,inactive: 0.0773
CC(C)C[C@H](NC(=O)[C@@H](NC(=O)c1cccc(-c2ccccc2)n1)[C@@H](C)O)B(O)O,active: 1,active: 1,active: 1,active: 1
Cc1ccc(Nc2nccc(N(C)c3ccc4c(C)n(C)nc4c3)n2)cc1S(N)(=O)=O,active: 1,active: 1,active: 1,active: 1
CN(c1ccccc1CNc1nc(Nc2ccc3c(c2)CC(=O)N3)ncc1C(F)(F)F)S(C)(=O)=O,active: 1,active: 1,active: 1,active: 1
CC/C(=C(\c1ccc(O)cc1)c1ccc(OCCN(C)C)cc1)c1ccccc1,active: 0.759,active: 0.979,inactive: 0.279,inactive: 0.175
O=C1C(CC[S+]([O-])c2ccccc2)C(=O)N(c2ccccc2)N1c1ccccc1 (stereo not drawn),inactive: 0.172,active: 0.459,inactive: 0.114,inactive: 0.256
CS(=O)(=O)Nc1ccc(-c2coc3cc(OCc4cccc(C(=O)O)c4)ccc3c2=O)cc1,inactive: 0.225,active: 0.314,inactive: 0.312,inactive: 0.283
CN[C@@H]1C[C@H]2O[C@@](C)([C@@H]1OC)n1c3ccccc3c3c4c(c5c6ccccc6n2c5c31)C(=O)N[C@H]4O,active: 1,active: 1,active: 1,active: 1
CNC(=O)[C@H](Cc1ccccc1)NC(=O)[C@H](CC(C)C)[C@H](CSc1cccs1)C(=O)NO,active: 1,active: 1,active: 1,active: 1
